# B1: Library 1 G2: cAMP sensor; SEQID 22 in Table 1, SEQ ID NO: 23 in Table 3 (protein)
# chain: MVAAHAAHSSSSAEWIACLDKRPLERSSEDVDIIFTRLKEVKAFEKFHPNLLHQICLCGYYENLEKGITLFRQGDIGTNWYAVLAGSLDVKVSETSSHQDAVTICTLGIGTAFGESILDNTPRHATIVTRESSELLRIEQKDFKALWEKYRQYMAGLLAPPYGVMETGSNNDRIPDKENTPLIEPHVPLRPANTITKVPSEKILRAGKILRNAILSRAPHMIRDRKYHLKTYRQCCVGTELVDWMMQQTPCVHSRTQAVGMWQVLLEDGVLNHVDQEHHFQDKYLFYRFLDDEHEDAPLPTEEEKKECDEELQDTMLLLSQMGPDAHMRMILRKPPGQRTVDDLEIIYEELLHIKALSHLSTTVKRELAGVLIFESHAKGGTVLFNQGEEGTSWYIILKGSVNVVIYGKGVVCTLHEGDDFGKLALVNDAPRAASIVLREDNCHFLRVDKEDFNRILRDVLENVYIKADKQKNGIKANFKIRHNIEDGGVQLAYHYQQNTPIGDGPVLLPDNHYLSVQSILSKDPNEKRDHMVLLEFVTAAGITLGMDELYKGGTGGSMVSKGEELFTGVVPIQVELDGDVNGHKFSVSGEGEGDATYGKLTLKFICTTGKLPVPWPTLVTTLTYGVQCFSRYPDHMKQHDFFKSAMPEGYIQERTIFFKDDGNYKTRAEVKFEGDTLVNRIELKGIDFKEDGNILGHKLEYNTRTVRLKEHDQDVLVLEKVPAGNRASNQGNSQPQQKYTVMSGTPEKILEHFLETIRLEATLNEATDSVLNDFIMMHCVFMPNTQLCPALVAHYHAQPSQGTEQEKMDYALNNKRRVIRLVLQWAAMYGDLLQEDDVSMAFLEEFYVSVSDDARMIAALKEQLPELEKIVKQISEDAKAPQKKHKVLLQQFNTGDERAQKRQPIRGSDEVLFKVYCMDPTYTTIRVPVATSVKEVISAVADKLGSGEGLIIVKMSSGGEKVVLKPNDVSVFMTLTINGRLFACPREQFDSLTPLPEQEGPTVGTVGTFELMSSKDLAYQMTIYDWELFNCVHELELIYHTFGRHNFKKTTANLDLFLRRFNEIQFWVVTEICLCSQLSKRVQLLKKFIKIAAHCKEYKNLNSFFAIVMGLSNVAVSRLALTWEKLPSKFKKFYAEFESLMDPSRNHRAYRLTVAKLEPPLIPFMPLLIKDMTFTHEGNKTFIDNLVNFEKMRMIANTARTVRYYRSQPFNPDAAQANKNHQDVRSYVRQLNVIDNQRTLSQMSHRLEPRRP
# B2: Library 2-1 D1: cAMP sensor; SEQID 21 in Table 1, SEQ ID NO: 22 in Table 3 (protein)
# chain: MVAAHAAHSSSSAEWIACLDKRPLERSSEDVDIIFTRLKEVKAFEKFHPNLLHQICLCGYYENLEKGITLFRQGDIGTNWYAVLAGSLDVKVSETSSHQDAVTICTLGIGTAFGESILDNTPRHATIVTRESSELLRIEQKDFKALWEKYRQYMAGLLAPPYGVMETGSNNDRIPDKENTPLIEPHVPLRPANTITKVPSEKILRAGKILRNAILSRAPHMIRDRKYHLKTYRQCCVGTELVDWMMQQTPCVHSRTQAVGMWQVLLEDGVLNHVDQEHHFQDKYLFYRFLDDEHEDAPLPTEEEKKECDEELQDTMLLLSQMGPDAHMRMILRKPPGQRTVDDLEIIYEELLHIKALSHLSTTVKRELAGVLIFESHAKGGTVLFNQGEEGTSWYIILKGSVNVVIYGKGVVCTLHEGDDFGKLALVNDAPRAASIVLREDNCHFLRVDKEDFNRILRDVEANLENVYIKADKQKNGIKANFKIRHNIEDGGVQLAYHYQQNTPIGDGPVLLPDNHYLSVQSILSKDPNEKRDHMVLLEFVTAAGITLGMDELYKGGTGGSMVSKGEELFTGVVPIQVELDGDVNGHKFSVSGEGEGDATYGKLTLKFICTTGKLPVPWPTLVTTLTYGVQCFSRYPDHMKQHDFFKSAMPEGYIQERTIFFKDDGNYKTRAEVKFEGDTLVNRIELKGIDFKEDGNILGHKLEYNTRKEDFNRILRDVEANTVRLKEHDQDVLVLEKVPAGNRASNQGNSQPQQKYTVMSGTPEKILEHFLETIRLEATLNEATDSVLNDFIMMHCVFMPNTQLCPALVAHYHAQPSQGTEQEKMDYALNNKRRVIRLVLQWAAMYGDLLQEDDVSMAFLEEFYVSVSDDARMIAALKEQLPELEKIVKQISEDAKAPQKKHKVLLQQFNTGDERAQKRQPIRGSDEVLFKVYCMDPTYTTIRVPVATSVKEVISAVADKLGSGEGLIIVKMSSGGEKVVLKPNDVSVFMTLTINGRLFACPREQFDSLTPLPEQEGPTVGTVGTFELMSSKDLAYQMTIYDWELFNCVHELELIYHTFGRHNFKKTTANLDLFLRRFNEIQFWVVTEICLCSQLSKRVQLLKKFIKIAAHCKEYKNLNSFFAIVMGLSNVAVSRLALTWEKLPSKFKKFYAEFESLMDPSRNHRAYRLTVAKLEPPLIPFMPLLIKDMTFTHEGNKTFIDNLVNFEKMRMIANTARTVRYYRSQPFNPDAAQANKNHQDVRSYVRQLNVIDNQRTLSQMSHRLEPRRP
# B3: Library 2-2 A5: cAMP sensor; SEQID 20 in Table 1, SEQ ID NO: 21 in Table 3 (protein)
# chain: MVAAHAAHSSSSAEWIACLDKRPLERSSEDVDIIFTRLKEVKAFEKFHPNLLHQICLCGYYENLEKGITLFRQGDIGTNWYAVLAGSLDVKVSETSSHQDAVTICTLGIGTAFGESILDNTPRHATIVTRESSELLRIEQKDFKALWEKYRQYMAGLLAPPYGVMETGSNNDRIPDKENTPLIEPHVPLRPANTITKVPSEKILRAGKILRNAILSRAPHMIRDRKYHLKTYRQCCVGTELVDWMMQQTPCVHSRTQAVGMWQVLLEDGVLNHVDQEHHFQDKYLFYRFLDDEHEDAPLPTEEEKKECDEELQDTMLLLSQMGPDAHMRMILRKPPGQRTVDDLEIIYEELLHIKALSHLSTTVKRELAGVLIFESHAKGGTVLFNQGEEGTSWYIILKGSVNVVIYGKGVVCTLHEGDDFGKLALVNDAPRAASIVLREDNCHFLRVDKEDFNRILRLENVYIKADKQKNGIKANFKIRHNIEDGGVQLAYHYQQNTPIGDGPVLLPDNHYLSVQSILSKDPNEKRDHMVLLEFVTAAGITLGMDELYKGGTGGSMVSKGEELFTGVVPIQVELDGDVNGHKFSVSGEGEGDATYGKLTLKFICTTGKLPVPWPTLVTTLTYGVQCFSRYPDHMKQHDFFKSAMPEGYIQERTIFFKDDGNYKTRAEVKFEGDTLVNRIELKGIDFKEDGNILGHKLEYNTRNRILRDVEANTVRLKEHDQDVLVLEKVPAGNRASNQGNSQPQQKYTVMSGTPEKILEHFLETIRLEATLNEATDSVLNDFIMMHCVFMPNTQLCPALVAHYHAQPSQGTEQEKMDYALNNKRRVIRLVLQWAAMYGDLLQEDDVSMAFLEEFYVSVSDDARMIAALKEQLPELEKIVKQISEDAKAPQKKHKVLLQQFNTGDERAQKRQPIRGSDEVLFKVYCMDPTYTTIRVPVATSVKEVISAVADKLGSGEGLIIVKMSSGGEKVVLKPNDVSVFMTLTINGRLFACPREQFDSLTPLPEQEGPTVGTVGTFELMSSKDLAYQMTIYDWELFNCVHELELIYHTFGRHNFKKTTANLDLFLRRFNEIQFWVVTEICLCSQLSKRVQLLKKFIKIAAHCKEYKNLNSFFAIVMGLSNVAVSRLALTWEKLPSKFKKFYAEFESLMDPSRNHRAYRLTVAKLEPPLIPFMPLLIKDMTFTHEGNKTFIDNLVNFEKMRMIANTARTVRYYRSQPFNPDAAQANKNHQDVRSYVRQLNVIDNQRTLSQMSHRLEPRR
# System: cAMP
# Assay: Fluorescence response of cAMP sensors to isoproterenol in HEK 293 cells co-expressing the beta adrenergic receptor
# Assay type: cell-based, human
# Details: in response to isoproternol
# Procedure, shortened: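 HEK 293 or HEK 293T cells were transiently co-transfected with sensor construct and beta adrenergic receptor, then imaged 24-48 h later in DPBS at 25 °C. Green fluorescence change (488/530 nm in plate reader) was recorded after isoproterenol, DMSO, forskolin or IBMX addition, background-subtracted.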
row,Molecule,Relative Change in Fluorescence [%]
1,B1,33
2,B2,33
3,B3,−33

# — patent publication US11366114B2, “Genetically encoded fluorescent sensors for detecting ligand bias and intracellular signaling through cAMP pathways” (MONTANA MOLECULAR LLC, priority 2013, dated 2022)
